# According to the supplement of paper PMC8728848:
# The other results are listed elsewhere or left out.
# B1: CCL1 (Coprinopsis cinerea) (protein)
# chain: MDTQAKPPAGRYVIYNRVLSPNGEKLALTYPGYQREALTLTPLHHSANQIWILNNWDATTSSLTPETARNTQVGWGSGNVPIVLPPGNYVWTLASSAGGYIIQDGGKTVYWNAGEAVANTKVSIGGDNGLQARWIFERV
# Experiments:
# Experiment in all cases: glycan array binding signal (z-score within array); higher = stronger binding
# Settings in all cases: glycan notation: IUPAC condensed, linker removed
# [1] = target: Neu5Ac(a2-6)GalNAc(b1-4)GlcNAc6S
# Method in brief: (§1)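 Arrays were curated from the Consortium for Functional Glycomics database, 3228 in total, and kept only where the protein sequence was available. Binding is expressed as a within-array Z-score. This score was averaged across arrays of the same protein sequence at different concentrations or buffers and across linkers, and negative values can be read as non-binding.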
# [2] = target: Neu5Ac(a2-6)GlcNAc(b1-4)GlcNAc
# Method in brief: as §1
# [3] = target: Neu5Ac(a2-6)GlcNAc(b1-4)GlcNAc(b1-4)GlcNAc
# Method in brief: as §1
# [4] = target: Neu5Ac(a2-8)Neu5Ac
# Method in brief: as §1
# [5] = target: Neu5Ac(a2-8)Neu5Ac(a2-3)Gal(b1-3)GalNAc(b1-4)[Neu5Ac(a2-8)Neu5Ac(a2-3)]Gal(b1-4)Glc
# Method in brief: as §1
# [6] = target: Neu5Ac(a2-8)Neu5Ac(a2-3)Gal(b1-4)Glc
# Method in brief: as §1
# [7] = target: Neu5Ac(a2-8)Neu5Ac(a2-3)[Gal(b1-3)GalNAc(b1-4)]Gal(b1-4)Glc
# Method in brief: as §1
# [8] = target: Neu5Ac(a2-8)Neu5Ac(a2-3)[GalNAc(b1-4)]Gal(b1-4)Glc
# Method in brief: as §1
# [9] = target: Neu5Ac(a2-8)Neu5Ac(a2-8)Neu5Ac
# Method in brief: as §1
# [10] = target: Neu5Ac(a2-8)Neu5Ac(a2-8)Neu5Ac(a2-3)Gal(b1-4)Glc
# Method in brief: as §1
# [11] = target: Neu5Ac(a2-8)Neu5Ac(a2-8)Neu5Ac(a2-3)[GalNAc(b1-4)]Gal(b1-4)Glc
# Method in brief: as §1
# [12] = target: Neu5Ac(a2-8)Neu5Ac(a2-8)Neu5Ac(a2-8)Neu5Ac(a2-3)[GalNAc(b1-4)]Gal(b1-4)Glc
# Method in brief: as §1
# [13] = target: Neu5Ac(b2-6)Gal(b1-4)GlcNAc
# Method in brief: as §1
# [14] = target: Neu5Ac(b2-6)GalNAc
# Method in brief: as §1
# [15] = target: Neu5Ac9Ac(a2-3)Gal(b1-3)GlcNAc
# Method in brief: as §1
# [16] = target: Neu5Ac9Ac(a2-3)Gal(b1-4)GlcNAc
# Method in brief: as §1
# [17] = target: Neu5Ac9Ac(a2-6)Gal(b1-4)GlcNAc
# Method in brief: as §1
# [18] = target: Neu5Gc(a2-3)Gal(b1-3)GlcNAc
# Method in brief: as §1
# [19] = target: Neu5Gc(a2-3)Gal(b1-3)[Fuc(a1-4)]GlcNAc
# Method in brief: as §1
# [20] = target: Neu5Gc(a2-3)Gal(b1-4)Glc
# Method in brief: as §1
# [21] = target: Neu5Gc(a2-3)Gal(b1-4)GlcNAc
# Method in brief: as §1
# [22] = target: Neu5Gc(a2-3)Gal(b1-4)[Fuc(a1-3)]GlcNAc
# Method in brief: as §1
# [23] = target: Neu5Gc(a2-6)Gal(b1-4)GlcNAc
# Method in brief: as §1
# [24] = target: Neu5Gc(a2-6)GalNAc
# Method in brief: as §1
# [25] = target: Neu5Gc(b2-6)Gal(b1-4)GlcNAc
# Method in brief: as §1
binder,measurement,setting,value
B1,glycan array binding signal (z-score),[1],-0.056
same,glycan array binding signal (z-score),[2],-0.147
same,glycan array binding signal (z-score),[3],-0.15
same,glycan array binding signal (z-score),[4],-0.131
same,glycan array binding signal (z-score),[5],-0.163
same,glycan array binding signal (z-score),[6],-0.166
same,glycan array binding signal (z-score),[7],-0.084
same,glycan array binding signal (z-score),[8],-0.127
same,glycan array binding signal (z-score),[9],-0.134
same,glycan array binding signal (z-score),[10],-0.123
same,glycan array binding signal (z-score),[11],-0.118
same,glycan array binding signal (z-score),[12],-0.108
same,glycan array binding signal (z-score),[13],-0.163
same,glycan array binding signal (z-score),[14],-0.145
same,glycan array binding signal (z-score),[15],-0.15
same,glycan array binding signal (z-score),[16],-0.145
same,glycan array binding signal (z-score),[17],-0.161
same,glycan array binding signal (z-score),[18],-0.15
same,glycan array binding signal (z-score),[19],-0.164
same,glycan array binding signal (z-score),[20],-0.129
same,glycan array binding signal (z-score),[21],-0.158
same,glycan array binding signal (z-score),[22],0.81
same,glycan array binding signal (z-score),[23],-0.133
same,glycan array binding signal (z-score),[24],-0.136
same,glycan array binding signal (z-score),[25],-0.147
